This is an account of results in paper PMC4336329 (PLoS ONE, 2015).

Hit rate of the full screen: of about 310,000 compounds, about 14,000 (4.5%) showed an effect of 50% or more. Effects have a minus sign here. The list shows a part of the results.
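Also: peak tail current of the secondary pulse compared with the same well before compound.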

For the assay, the target named is human ether-à-go-go-related gene (hERG) potassium channel (human, UniProt Q12809). Nature of the assay: primary screen, population patch clamp on CHO cells stably expressing hERG.
human ether-à-go-go-related gene (hERG) potassium channel, sequence (Q12809 whole entry, looked up): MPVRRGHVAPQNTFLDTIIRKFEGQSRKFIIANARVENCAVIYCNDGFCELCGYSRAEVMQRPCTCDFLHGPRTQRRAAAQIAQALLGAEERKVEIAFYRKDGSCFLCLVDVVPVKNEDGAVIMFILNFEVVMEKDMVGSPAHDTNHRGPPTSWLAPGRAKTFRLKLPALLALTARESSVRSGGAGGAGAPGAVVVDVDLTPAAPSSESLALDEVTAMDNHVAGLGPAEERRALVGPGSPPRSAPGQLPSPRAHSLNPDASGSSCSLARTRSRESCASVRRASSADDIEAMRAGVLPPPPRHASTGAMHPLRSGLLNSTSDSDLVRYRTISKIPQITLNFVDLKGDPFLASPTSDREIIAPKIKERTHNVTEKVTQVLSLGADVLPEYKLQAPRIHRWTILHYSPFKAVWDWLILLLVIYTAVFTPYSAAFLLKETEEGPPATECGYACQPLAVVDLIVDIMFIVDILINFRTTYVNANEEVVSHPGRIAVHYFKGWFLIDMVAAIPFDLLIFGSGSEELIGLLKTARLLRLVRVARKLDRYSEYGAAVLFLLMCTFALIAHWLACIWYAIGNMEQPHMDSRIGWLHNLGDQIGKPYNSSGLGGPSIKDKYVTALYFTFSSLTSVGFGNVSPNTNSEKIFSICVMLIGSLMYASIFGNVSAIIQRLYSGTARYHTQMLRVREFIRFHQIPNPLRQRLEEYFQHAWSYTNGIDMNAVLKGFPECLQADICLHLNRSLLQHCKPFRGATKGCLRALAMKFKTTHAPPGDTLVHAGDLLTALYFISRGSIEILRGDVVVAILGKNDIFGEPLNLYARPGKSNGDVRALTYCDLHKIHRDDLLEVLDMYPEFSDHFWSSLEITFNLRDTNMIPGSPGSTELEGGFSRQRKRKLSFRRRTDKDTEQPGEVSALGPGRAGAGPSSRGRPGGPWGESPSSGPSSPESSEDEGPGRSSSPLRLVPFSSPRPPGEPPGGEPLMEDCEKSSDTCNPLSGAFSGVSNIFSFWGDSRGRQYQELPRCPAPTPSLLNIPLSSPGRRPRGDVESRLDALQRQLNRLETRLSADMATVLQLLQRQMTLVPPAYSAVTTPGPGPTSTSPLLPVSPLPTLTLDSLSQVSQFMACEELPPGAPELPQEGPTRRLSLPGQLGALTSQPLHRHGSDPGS
On to `CC(=O)N1CCN(CC(=O)NC(=O)Nc2ccc3c(c2)OCCO3)CC1`, for which the “hERG current change (%, negative = inhibition) at 10uM” value is recorded as 3.58%. As to `CC(C)(C)c1ccc(C(=O)NCC(=O)OCc2ccc([N+](=O)[O-])cc2)cc1`, the “hERG current change (%, negative = inhibition) at 10uM” value is -7.46%.

For the compound `C#CCOCCOCCOCCNc1nc(N2CCN(C(=O)[C@H]([C@@H](C)O)n3cc(CCCC[NH3+])nn3)CC2)nc(N2CCN(C(=O)[C@H](CCCC[NH3+])n3cc(CCCC)nn3)CC2)n1.[Cl-]`, the “hERG current change (%, negative = inhibition) at 10uM” value is given as 14.1%.

`CC(=O)c1cc2c(cc1N/C(=N/S(=O)(=O)c1ccc(C)cc1)c1ccccc1)OCO2`: the “hERG current change (%, negative = inhibition) at 10uM” value worked out at 1.67%.

In the case of `O=C(Nc1ccc(F)cc1)C(c1ccccc1)N1CCN(CC(=O)N2CCCC2)CC1` (centres unmarked), the “hERG current change (%, negative = inhibition) at 10uM” value was -65.3%. Consider `CCOC(=O)c1ccc(N2CC(O)=C(c3nc4ccccc4c(=O)[nH]3)C2=N)cc1`, for which the “hERG current change (%, negative = inhibition) at 10uM” value was -5.62%.

Regarding `N=c1c2c(ncn1CCN1CCOCC1)Oc1cc(O)ccc1C2c1ccccc1` (centres unmarked), the “hERG current change (%, negative = inhibition) at 10uM” value is -42.9%. For `CCCN1CCN(S(=O)(=O)c2ccc3c(c2)CC(C)N3C(=O)C2CC2)CC1` (centres unmarked) the value was 14.8%; for `CCOC(=O)C1=C(C)NC(=O)NC1c1ccco1` (centres unmarked), 9.99%; for `NS(=O)(=O)c1cccc(NC(=O)c2cccs2)c1`, 18.4%. For `Cc1nc2ccccn2c1C(=O)CSc1ccccc1Cl` the value was -19.5%. As to `CCCc1cc(C(=O)Nc2cc(C)nn2-c2ccccc2)no1`, the “hERG current change (%, negative = inhibition) at 10uM” value is -0.636%. For `Cc1oc2ccc(O)cc2c1C(=O)c1ccc(F)cc1` the value was 4.15%; for `O=C(COc1ccc(Cl)cc1)NNC(=O)c1ccc2c(=O)n3c(nc2c1)CCC3`, -48.7%.

Regarding `O=C(Nc1ccc(-n2cnnn2)cc1)C(c1ccccc1)c1ccccc1`, the “hERG current change (%, negative = inhibition) at 10uM” value is on record as 8.56%.

With `Cc1ccc(-n2nnnc2SCC(=O)N2CCN(C(=O)c3ccco3)CC2)c(C)c1`, the “hERG current change (%, negative = inhibition) at 10uM” value is recorded as -76%. The figure for `CCC(C)C(=O)NCCc1ccc(S(N)(=O)=O)cc1` (centres unmarked) is 3.41%; for `COC(=O)[C@@H](NC(=O)Nc1cccc(OC)c1)C(C)C` it is -13.4%. The figure for `O=C(CSCCc1ccccn1)Nc1ccccn1` is 11.6%. With `Cc1ccc(NC(=O)C2CCN(S(=O)(=O)c3ccc(N4CCCC4=O)cc3)CC2)cc1Cl`, the “hERG current change (%, negative = inhibition) at 10uM” value is on record as -0.121%.

Take `O=C(O)c1ccc2c(=O)n3c(nc2c1)/C(=C/c1ccc(Cl)cc1Cl)CC3`: the “hERG current change (%, negative = inhibition) at 10uM” value was determined as 0.363%. Take `CN(C)CCNC(=O)c1ccc(COCC(F)(F)F)cc1`: the “hERG current change (%, negative = inhibition) at 10uM” value is reported as -12.7%.

As to `CCCCn1cnc2cc(NCc3ccncc3)ccc21`, the “hERG current change (%, negative = inhibition) at 10uM” value was -1.31%. The figure for `CC(=O)c1ccc2noc(-c3ccc(Cl)cc3)c2c1` is 2.26%; for `CCN1C(=O)N[C@@H](c2ccco2)C(C(=O)OC)=C1C` it is 6.79%; for `Cc1cccc(-n2c(SCC(=O)NCC3CCCO3)nc3ccccc3c2=O)c1C` (centres unmarked) it is 0.08%.

Take `CC1(C)CC(=O)C(C=NCCN2CCN(C(=O)Cc3ccc(Cl)cc3)CC2)=C(O)C1`: the “hERG current change (%, negative = inhibition) at 10uM” value is -62%. The figure for `CCOC(=O)CC1C(=O)NCCN1C(=O)NC1CCCCC1` (centres unmarked) is 4.54%. For `CCOC(=O)C1CCN(C/C=C/c2ccccc2OC)CC1`, the “hERG current change (%, negative = inhibition) at 10uM” value is given as -20.5%. For `COc1ccc(Cn2c(-c3ccco3)nc3oc4cc(OC)ccc4c(=O)c3c2=O)cc1` the value was -31.4%. Take `CCOc1cc(/C=C2/C(=O)NN(c3cccc(Cl)c3)C2=O)ccc1O`: the “hERG current change (%, negative = inhibition) at 10uM” value is given as 11.7%. Take `Cn1ccnc1CC(O)(c1ccccc1)c1ccccc1`: the “hERG current change (%, negative = inhibition) at 10uM” value was -7.49%. For `CC(C)CC1NC(=O)c2ccccc2-n2c1nc1cc(F)ccc1c2=O` (centres unmarked) the value was -15%; for `CC(C)OCCCNC(=O)c1cc(S(=O)(=O)N2CCCCC2)c[nH]1`, -5.43%; for `O=C(NCc1ccncc1)Nc1ccc(F)cc1`, 17.2%. In the case of `CCc1ccccc1NC(=O)N[C@H](C(=O)O)C(C)CC` (some centres unmarked), the “hERG current change (%, negative = inhibition) at 10uM” value is on record as -3.02%. For `CC(=C\c1ccccc1)/C=C1/SC(=S)N(CCC(=O)O)C1=O` the value was 4.16%. For `CN(C(=O)c1ccc(S(=O)(=O)NC2CCCC2)cc1)C1CCCCC1` the value was -12.8%; for `CCc1ccc2nc(N)sc2c1`, 18.7%; for `CC(C)Oc1ccc(C(CC(=O)N(C)CCC#N)c2ccc(F)cc2)cc1` (centres unmarked), -59.2%.

With `C/C(=N\NS(=O)(=O)c1ccc(Cl)c([N+](=O)[O-])c1)c1cc2ccccc2o1`, the “hERG current change (%, negative = inhibition) at 10uM” value was determined as 6.01%. For `Cn1nccc1C(=O)Nc1sc2c(c1C(N)=O)CCCC2` the value was -7.97%; for `C=CCOC(=O)C1=C(C)NC(SCC(=O)Nc2ccccc2)=C(C#N)C1c1ccco1` (centres unmarked), -15.1%. Take `CS(=O)(=O)N(CC(=O)NC1CCCC1)Cc1ccc(Cl)cc1`: the “hERG current change (%, negative = inhibition) at 10uM” value is listed as -14.5%. For `CCOC(=O)CS(=O)(=O)c1nc(-c2ccccc2)cc(C(F)(F)F)n1` the value was -26.6%; for `Cc1ccc(C(=O)Nc2cccc(S(=O)(=O)N(C)c3ccccc3)c2)o1`, -31.3%; for `Cn1nc2sc3ccccc3n2c(=O)c1=O`, 18%.

Take `CC1=C/C(=N\Nc2ccccc2[N+](=O)[O-])CC(C)(C)C1`: the “hERG current change (%, negative = inhibition) at 10uM” value worked out at 7.91%. The figure for `CCn1c2ccc(C)cc2c2nnc(SCCN3CCOCC3)nc21` is -13.8%; for `Fc1ccccc1CNc1ncnc2sccc12` it is 11.9%. The figure for `O/N=C/c1cc(Cl)ccc1OCc1cccc2ccccc12` is -3.04%; for `Cn1c(=O)n(Cc2ccc(F)cc2)c(=O)c2c1nc1n2CCCN1C1CCCCC1` it is -4.76%. For `COC(=O)CCC(=O)Nc1cccc([N+](=O)[O-])c1`, the “hERG current change (%, negative = inhibition) at 10uM” value is 5.87%.

`CSCCC(NC(=O)c1ccco1)C(=O)NCC(C)(C)N1CCOCC1` (centres unmarked): the “hERG current change (%, negative = inhibition) at 10uM” value is recorded as -1.09%. The figure for `Cc1ccc(NC(=O)COC(=O)C2=COCCO2)c([N+](=O)[O-])c1` is 42%; for `COc1cccc(-n2c(Cn3nc(C(F)(F)F)cc3C)n[nH]c2=S)c1` it is 10.7%.
